# Screen size: about 410,000 compounds; about 6,400 (1.6%) were called active. This list was built around the results that the source calls inconclusive (neither active nor inactive); the mix of calls is not that of the screen. The call rests on the fitted dose curve; in most records, active means well fitted inhibition curve with a large enough effect; inconclusive means small, poorly fitted or top-dose-only effect; inactive means no such curve, though single readings can be large or run the other way. No potency is given beside an inconclusive call; the fits are too rough.
# Biological target: Glucagon-like peptide 1 receptor (Homo sapiens) (UniProt P43220)
# UniProt P43220, sequence (P43220 whole entry, looked up): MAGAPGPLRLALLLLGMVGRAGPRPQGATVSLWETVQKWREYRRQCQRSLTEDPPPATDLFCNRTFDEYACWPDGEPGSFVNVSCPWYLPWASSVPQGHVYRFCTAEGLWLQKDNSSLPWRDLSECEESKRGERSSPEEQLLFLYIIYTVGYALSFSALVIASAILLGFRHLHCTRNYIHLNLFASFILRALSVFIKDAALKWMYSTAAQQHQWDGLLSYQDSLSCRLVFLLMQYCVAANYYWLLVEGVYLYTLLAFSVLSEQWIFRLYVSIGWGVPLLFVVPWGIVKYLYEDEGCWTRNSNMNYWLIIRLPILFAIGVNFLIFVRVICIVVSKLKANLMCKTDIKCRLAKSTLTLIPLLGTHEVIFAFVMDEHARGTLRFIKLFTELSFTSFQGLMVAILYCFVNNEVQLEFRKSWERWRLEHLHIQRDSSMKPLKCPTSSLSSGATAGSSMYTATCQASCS
# Assay: qHTS of GLP-1 Receptor Inverse Agonists (Inhibition Mode); further: nearly all actives have a fitted effect of over 55% in size
# Settings: HEK293 GLP-1R CRE-luciferase, luminescence, 24 h, GLP-1R form is constitutively active; activity change, negative = inhibition: at 38.3 µM (top of the series) unless noted
# How it was run: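 Inverse agonists were sought by their lowering of basal cAMP reporter luciferase output in HEK293 cells stably carrying constitutively active human GLP-1R, after 24 h compound treatment.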
# On the % scale 0 is the no-effect control and ±100 the full control effect; potency means the concentration at half of the fitted maximal effect; tags describe the fitted curve by direction and shape.
Structure (SMILES),Potency,"activity change, negative = inhibition"
C[C@H](CO)N1C[C@H](C)[C@@H](CN(C)C(=O)Nc2ccc(C(F)(F)F)cc2)Oc2c(NC(=O)Nc3ccc(C(F)(F)F)cc3)cccc2C1=O,active: 11.2 µM,–
CNc1nc(NCc2ccccc2)c2ccccc2n1,"inconclusive [inhibitor, single point]",–
CC1CCCCN1CC(=O)N1CCCc2c1c(=O)oc1ccc(OCc3ccccc3)cc21 (stereo unspecified),"inconclusive [inhibitor, partial curve, poor fit]",–
Cc1nn(-c2ccc(F)cc2)c(Cl)c1C(=O)OC(C)C(=O)N(C)C1CCCCC1 (stereo unspecified),active: 5.01 µM,–
CCCCCCN1C[C@@H](n2cc(C3CC3)nn2)[C@H](O)C[C@@H]1c1ccc(C)cc1,active: 3.98 µM,–
COc1ccccc1C(=O)Nc1ccc(-c2nc3ccccc3s2)c(C)c1,–,inactive: 0.29%
COc1cc(/C=C/C(=O)c2ccc3c(c2)OCCO3)cc(Br)c1OCC(=O)N(C)C,"inconclusive [inhibitor, full curve, poor fit]",–
Cc1cccc(C(=O)NCC(=O)NCCSc2ccc(Br)cc2)c1,"inconclusive [inhibitor, single point]",–
Cc1ccc(NC(=O)CNc2cccc(S(=O)(=O)N3CCCC3)c2)cc1F,"inconclusive [inhibitor, partial curve, poor fit]",–
N#Cc1c2c(c[nH]c1=O)CCN2Cc1ccccc1,"inconclusive [inhibitor, partial curve, poor fit]",–
CN1[C@@H](Cc2ccccc2)COc2cc(N3CCSCC3)ccc2S1(=O)=O,"inconclusive [inhibitor, single point]",–
O=S(=O)(NCc1ccccc1)c1ccc(Br)s1,"inconclusive [inhibitor, single point]",–
CCOC(=O)C1=CCN(S(=O)(=O)c2ccc(C)cc2)C1c1cccc(Cl)c1 (stereo unspecified),"inconclusive [inhibitor, single point]",–
Cc1cccc(/C=C2\Sc3ccc(C(=O)N4CCC(C)CC4)cc3N(C)C2=O)c1,"inconclusive [inhibitor, partial curve, poor fit]",–
O=C(Nc1ccc(NS(=O)(=O)c2ccccc2)cc1)c1ccccc1Cl,"inconclusive [inhibitor, partial curve, poor fit]",–
O=C1N(Cc2ccc(F)cc2Cl)c2ccccc2C12OCCCO2,"inconclusive [inhibitor, single point]",–
O=C(CCC(=O)N1CCOc2ccc(Cl)cc21)NCCCN1CCC(Cc2ccccc2)CC1,"inconclusive [inhibitor, partial curve, poor fit]",–
COc1ccc(-c2nc3ccccc3n2Cc2ccc(Cl)cc2)cc1,active: 10 µM,–
CCC1CCCCN1CCCNC(=O)CNC(=O)c1nn(-c2ccc(OC)c(Cl)c2)c(=O)c2ccccc12 (stereo unspecified),"inconclusive [inhibitor, single point]",–
Cc1ccc(C)c(-n2nnnc2SCC(=O)c2ccc3c(c2)NC(=O)CO3)c1,"inconclusive [inhibitor, partial curve, poor fit]",–
CCOC(=O)C(=CNc1ccc(NC2=NCC(C)(C)S2)cc1)C(=O)OCC,–,inactive: 151%

Structure (SMILES),Potency,"activity change, negative = inhibition"
NNC(=O)c1cc(C23CC4CC(CC(C4)C2)C3)nc2ccccc12,"inconclusive [inhibitor, single point]",–
Cc1ccc(N(CC(=O)N/N=C/c2ccc(OC3CSC3)cc2)S(=O)(=O)c2ccccc2)cc1,"inconclusive [inhibitor, single point]",–
N=C1/C(=C\c2ccc(-c3cccc(C(=O)O)c3)o2)C(=O)N=C2SC=C(c3ccccc3)N12,"inconclusive [inhibitor, single point]",–
COc1cccc(/C=N/Nc2nc(Nc3ccccc3)nc(-n3nc(C)cc3C)n2)c1O,"inconclusive [inhibitor, full curve, poor fit]",–
Cc1nnc(N2CCN(C(=O)Nc3cccc(C(F)(F)F)c3)CC2)c2nn(-c3ccccc3)c(C)c12,–,inactive: -7.08%
COc1cn(-c2ccccc2)nc1C(=O)NCc1ccc(C)cc1,–,inconclusive: -34.4% [inhibitor]
NC(=O)c1cc(S(=O)(=O)NCC2CCC(C(=O)Nc3ccc(Cl)cc3)CC2)cs1 (stereo unspecified),–,inactive: -18.7%
O=c1oc2ccccc2c(Cl)c1CN1CCCCC1,–,inactive: 3.09%
O=C(NCC(=O)N(Cc1cccs1)C(C(=O)NC1CCCCC1)c1ccco1)c1cccs1 (stereo unspecified),"inconclusive [inhibitor, single point]",–
OC[C@@H]1CN(Cc2ccccc2)C[C@H](n2cnc3c(NC4CC4)ncnc32)O1,–,inactive: 4.06%
CN(C)Cc1ccccc1Sc1ccc2c(c1)CCCC2,"inconclusive [inhibitor, single point]",–
Cc1ccc(-c2nc(SCC(=O)NCC3CCCO3)c(-c3ccc(C)cc3)[nH]2)cc1 (stereo unspecified),"inconclusive [inhibitor, full curve, poor fit]",–
CCOC(=O)Cc1c(C)nc2c(-c3ccccc3)cnn2c1C,–,inactive: 4.09%
NC(=O)CC(NC(=O)Cc1cccc2ccccc12)c1ccc(NCc2ccccc2)c([N+](=O)[O-])c1 (stereo unspecified),–,inactive: 9.92%
Cc1nn(CCCC(=O)NC(C)c2ccccc2)c(=O)c2nn(-c3ccccc3)c(C)c12 (stereo unspecified),"inconclusive [inhibitor, full curve, poor fit]",–
O=C(c1cc([N+](=O)[O-])ccc1Cl)N1c2ccccc2Sc2ccccc21,"inconclusive [inhibitor, single point]",–
CC(C)CN1C(=O)C(=O)N(CC(=O)c2ccc3c(c2)OCO3)C1=O,–,inactive: 45%
COc1cc(-c2noc(C)c2/C=C/c2cccc([N+](=O)[O-])c2)cc(OC)c1OC,"inconclusive [inhibitor, full curve, poor fit]",–
Cc1cccc(N2CCN(Cc3nc(CC4CC4)no3)CC2)n1,"inconclusive [inhibitor, partial curve, poor fit]",–
Cc1cc(C)c(NC(=S)NCCCSC2CCCCC2)c(C)c1,"inconclusive [inhibitor, partial curve, poor fit]",–
